Experimental data as given in US20210393530A1 (Regeneron, published 2021).

Tests used:
human VEGF [1] = target: T1, human VEGF (human, UniProt P15692-4 27-191, limits assumed); experiment: cell-based or functional assay
T1 sequence (looked up): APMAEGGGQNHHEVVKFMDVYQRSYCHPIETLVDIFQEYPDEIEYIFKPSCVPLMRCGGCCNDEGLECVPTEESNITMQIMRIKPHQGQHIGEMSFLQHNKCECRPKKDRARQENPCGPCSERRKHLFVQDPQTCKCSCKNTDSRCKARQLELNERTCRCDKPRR

human VEGF [2] = target: T1, human VEGF; experiment: ELISA of free VEGF in equilibrated mixtures of VEGF and varied VEGF trap; 25 mg/ml liquid formulation stored at 5° C., 0 months
Procedure: (§1) The stability of a reconstituted lyophilized formulation was determined over a 6 month period. The pre-lyophilized formulation contained 10 mM histidine, 1.5% PEG 3350, 2.5% sucrose, 0.75% glycine and 50 mg/ml VEGF trap protein. After lyophilization, the reconstituted formulation contained 20 mM histidine, 3% PEG 3350, 5% sucrose, 1.5% glycine, and 100 mg/ml VEGF trap protein (SEQ ID NO:4). Activity was determined in a cell based bioassay which directly measures the ability of the VEGF trap to inhibit the biological effects of human VEGF on a mouse Baf/3 VEGFR1/EpoR cell line. Therefore, this bioassay directly measures the biological activity of the protein. The results are expressed as percent relative potency (test sample IC₅₀/reference VEGF IC₅₀ standard×100). The binding affinity of VEGF to the VEGF trap is measured using a sensitive ELISA that specifically measures free VEGF in equilibrated mixtures containing VEGF and various concentrations of the VEGF trap. Results are expressed as percent relative binding (IC₅₀ of test sample/IC₅₀ of reference×100). Measured pH ranged between 6.3-6.5. All solutions were visually clear. The concentration of VEGF trap recovered was determined with a UV spectrophotometer as mg/ml at A₂₈₀ nm. The percent VEGF trap recovered in the native configuration (main peak purity) was determined with SE-HPLC. […]

human VEGF [3] = target: T1, human VEGF; experiment: ELISA of free VEGF in equilibrated mixtures of VEGF and varied VEGF trap; 25 mg/ml liquid formulation stored at 5° C., 3 months
Procedure: as §1

human VEGF [4] = target: T1, human VEGF; experiment: ELISA of free VEGF in equilibrated mixtures of VEGF and varied VEGF trap; 25 mg/ml liquid formulation stored at 5° C., 6 months
Procedure: as §1

human VEGF [5] = target: T1, human VEGF; experiment: ELISA of free VEGF in equilibrated mixtures of VEGF and varied VEGF trap; 25 mg/ml liquid formulation stored at 5° C., 9 months
Procedure: as §1

human VEGF [6] = target: T1, human VEGF; experiment: ELISA of free VEGF in equilibrated mixtures of VEGF and varied VEGF trap; 25 mg/ml liquid formulation stored at 5° C., 12 months
Procedure: as §1

human VEGF [7] = target: T1, human VEGF; experiment: ELISA of free VEGF in equilibrated mixtures of VEGF and varied VEGF trap; 25 mg/ml liquid formulation stored at 5° C., 18 months
Procedure: as §1

human VEGF [8] = target: T1, human VEGF; experiment: ELISA of free VEGF in equilibrated mixtures of VEGF and varied VEGF trap; 25 mg/ml liquid formulation stored at 5° C., 24 months
Procedure: as §1

human VEGF [9] = target: T1, human VEGF; experiment: ELISA of free VEGF in equilibrated mixtures of VEGF and varied VEGF trap; 25 mg/ml liquid formulation stored at 5° C., 36 months
Procedure: as §1

human VEGF [10] = target: T1, human VEGF; experiment: ELISA of free VEGF in equilibrated mixtures of VEGF and varied VEGF trap; reconstituted lyophilized formulation stored at 5° C., 1 month
Procedure: (§2) The stability of a reconstituted lyophilized formulation was determined over a 6 month period. The pre-lyophilized formulation contained 10 mM histidine, 1.5% PEG 3350, 2.5% sucrose, 0.75% glycine and 50 mg/ml VEGF trap protein. After lyophilization, the reconstituted formulation contained 20 mM histidine, 3% PEG 3350, 5% sucrose, 1.5% glycine, and 100 mg/ml VEGF trap protein (SEQ ID NO:4). Activity was determined in a cell based bioassay which directly measures the ability of the VEGF trap to inhibit the biological effects of human VEGF on a mouse Baf/3 VEGFR1/EpoR cell line. Therefore, this bioassay directly measures the biological activity of the protein. The results are expressed as percent relative potency (test sample IC₅₀/reference VEGF IC₅₀ standard×100). The binding affinity of VEGF to the VEGF trap is measured using a sensitive ELISA that specifically measures free VEGF in equilibrated mixtures containing VEGF and various concentrations of the VEGF trap. Results are expressed as percent relative binding (IC₅₀ of test sample/IC₅₀ of reference×100). Measured pH ranged between 6.3-6.5. All solutions were visually clear. The concentration of VEGF trap recovered was determined with a UV spectrophotometer as mg/ml at A₂₈₀ nm. The percent VEGF trap recovered in the native configuration (main peak purity) was determined with SE-HPLC.

human VEGF [11] = target: T1, human VEGF; experiment: ELISA of free VEGF in equilibrated mixtures of VEGF and varied VEGF trap; reconstituted lyophilized formulation stored at 5° C., 0 months
Procedure: as §2

human VEGF [12] = target: T1, human VEGF; experiment: ELISA of free VEGF in equilibrated mixtures of VEGF and varied VEGF trap; reconstituted lyophilized formulation stored at 5° C., 1 + 4 hr
Procedure: as §2

human VEGF [13] = target: T1, human VEGF; experiment: ELISA of free VEGF in equilibrated mixtures of VEGF and varied VEGF trap; reconstituted lyophilized formulation stored at 5° C., 3 months
Procedure: as §2

human VEGF [14] = target: T1, human VEGF; experiment: ELISA of free VEGF in equilibrated mixtures of VEGF and varied VEGF trap; reconstituted lyophilized formulation stored at 5° C., 1 + 24 hr
Procedure: as §2

human VEGF [15] = target: T1, human VEGF; experiment: ELISA of free VEGF in equilibrated mixtures of VEGF and varied VEGF trap; reconstituted lyophilized formulation stored at 5° C., 3 + 24 hr
Procedure: as §2

B1: VEGF trap (SEQ ID NO:4) (Fc fusion)
chain: SDTGRPFVEMYSEIPEIIHMTEGRELVIPCRVTSPNITVTLKKFPLDTLIPDGKRIIWDSRKGFIISNATYKEIGLLTCEATVNGHLYKTNYLTHRQTNTIIDVVLSPSHGIELSVGEKLVLNCTARTELNVGIDFNWEYPSSKHQHKKLVNRDLKTQSGSEMKKFLSTLTIDGVTRSDQGLYTCAASSGLMTKKNSTFVRVHEK[in this place human IgG1 Fc]
modifications: glycosylated at Asn residues 62, 94, 149, 222 and 308 (told as a specific embodiment)
notes: also called VEGF trap protein; VEGF-specific fusion protein antagonist
Bioassay: percent relative potency (test sample IC50/reference VEGF IC50 standard×100), 0 months, reconstituted lyophilized formulation (human VEGF [1]): 120%
Bioassay: percent relative potency (test sample IC50/reference VEGF IC50 standard×100), 1 + 4 hr, reconstituted lyophilized formulation (human VEGF [1]): 94%
Bioassay: percent relative potency (test sample IC50/reference VEGF IC50 standard×100), 1 + 24 hr, reconstituted lyophilized formulation (human VEGF [1]): 126%
Bioassay: percent relative potency (test sample IC50/reference VEGF IC50 standard×100), 1 month, reconstituted lyophilized formulation (human VEGF [1]): 117%
Bioassay: percent relative potency (test sample IC50/reference VEGF IC50 standard×100), 3 + 24 hr, reconstituted lyophilized formulation (human VEGF [1]): 65%
Bioassay: percent relative potency (test sample IC50/reference VEGF IC50 standard×100), 3 months, reconstituted lyophilized formulation (human VEGF [1]): 101%
percent relative binding (IC50 of test sample/IC50 of reference×100) (human VEGF [2]): 72%
percent relative binding (IC50 of test sample/IC50 of reference×100) (human VEGF [3]): 88%
percent relative binding (IC50 of test sample/IC50 of reference×100) (human VEGF [4]): 106%
percent relative binding (IC50 of test sample/IC50 of reference×100) (human VEGF [5]): 126%
percent relative binding (IC50 of test sample/IC50 of reference×100) (human VEGF [6]): 95%
percent relative binding (IC50 of test sample/IC50 of reference×100) (human VEGF [7]): 81%
percent relative binding (IC50 of test sample/IC50 of reference×100) (human VEGF [8]): 95%
percent relative binding (IC50 of test sample/IC50 of reference×100) (human VEGF [9]): 79%
percent relative binding (IC50 of test sample/IC50 of reference×100) (human VEGF [10]): 74%
percent relative binding (IC50 of test sample/IC50 of reference×100) (human VEGF [11]): 126%
percent relative binding (IC50 of test sample/IC50 of reference×100) (human VEGF [12]): 81%
percent relative binding (IC50 of test sample/IC50 of reference×100) (human VEGF [13]): 98%
percent relative binding (IC50 of test sample/IC50 of reference×100) (human VEGF [14]): 72%
percent relative binding (IC50 of test sample/IC50 of reference×100) (human VEGF [15]): 94%
